Measured values: the supplement of paper PMC8728848
The list shows a part of the results.

Assays:
Test in all cases: glycan array binding signal (z-score within array); higher = stronger binding
Settings in all cases: glycan notation: IUPAC condensed, linker removed
[1] = molecular target: Neu5Ac(a2-6)Gal(b1-4)GlcNAc(b1-2)Man(a1-3)[Man(a1-6)]Man(b1-4)GlcNAc(b1-4)GlcNAc
How it was run: (§1)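 Glycan array data came from 3228 arrays in the Consortium for Functional Glycomics database, and only arrays with an available protein sequence were kept. Glycan names were put into IUPAC-condensed notation, and columns mapping to the same glycan were averaged. The binding signal is a within-array Z-score, averaged across arrays of one protein sequence run at different concentrations or buffers and across linkers. A negative Z-score can be read as non-binding.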

[2] = molecular target: Neu5Ac(a2-6)Gal(b1-4)GlcNAc(b1-2)Man(a1-3)[Neu5Ac(a2-6)Gal(b1-4)GlcNAc(b1-2)Man(a1-6)]Man(b1-4)GlcNAc(b1-4)GlcNAc
How it was run: as §1

[3] = molecular target: Neu5Ac(a2-6)Gal(b1-4)GlcNAc(b1-2)Man(a1-6)Man(b1-4)GlcNAc(b1-4)GlcNAc
How it was run: as §1

[4] = molecular target: Neu5Ac(a2-6)Gal(b1-4)GlcNAc(b1-2)Man(a1-6)[Gal(b1-4)GlcNAc(b1-2)Man(a1-3)]Man(b1-4)GlcNAc(b1-4)GlcNAc
How it was run: as §1

[5] = molecular target: Neu5Ac(a2-6)Gal(b1-4)GlcNAc(b1-2)Man(a1-6)[GlcNAc(b1-2)Man(a1-3)]Man(b1-4)GlcNAc(b1-4)GlcNAc
How it was run: as §1

[6] = molecular target: Neu5Ac(a2-6)Gal(b1-4)GlcNAc(b1-2)Man(a1-6)[Man(a1-3)]Man(b1-4)GlcNAc(b1-4)GlcNAc
How it was run: as §1

[7] = molecular target: Neu5Ac(a2-6)Gal(b1-4)GlcNAc(b1-3)Gal(b1-3)GlcNAc
How it was run: as §1

[8] = molecular target: Neu5Ac(a2-6)Gal(b1-4)GlcNAc(b1-3)Gal(b1-4)GlcNAc
How it was run: as §1

[9] = molecular target: Neu5Ac(a2-6)Gal(b1-4)GlcNAc(b1-3)Gal(b1-4)GlcNAc(b1-3)Gal(b1-4)GlcNAc
How it was run: as §1

[10] = molecular target: Neu5Ac(a2-6)Gal(b1-4)GlcNAc(b1-3)Gal(b1-4)[Fuc(a1-3)]GlcNAc(b1-3)Gal(b1-4)[Fuc(a1-3)]GlcNAc
How it was run: as §1

[11] = molecular target: Neu5Ac(a2-6)Gal(b1-4)GlcNAc(b1-3)GalNAc
How it was run: as §1

[12] = molecular target: Neu5Ac(a2-6)Gal(b1-4)GlcNAc6S
How it was run: as §1

[13] = molecular target: Neu5Ac(a2-6)GalNAc
How it was run: as §1

[14] = molecular target: Neu5Ac(a2-6)GalNAc(b1-4)GlcNAc
How it was run: as §1

[15] = molecular target: Neu5Ac(a2-6)GlcNAc(b1-4)GlcNAc
How it was run: as §1

[16] = molecular target: Neu5Ac(a2-6)GlcNAc(b1-4)GlcNAc(b1-4)GlcNAc
How it was run: as §1

[17] = molecular target: Neu5Ac(a2-8)Neu5Ac
How it was run: as §1

[18] = molecular target: Neu5Ac(a2-8)Neu5Ac(a2-3)Gal(b1-4)Glc
How it was run: as §1

[19] = molecular target: Neu5Ac(a2-8)Neu5Ac(a2-3)[GalNAc(b1-4)]Gal(b1-4)Glc
How it was run: as §1

[20] = molecular target: Neu5Ac(a2-8)Neu5Ac(a2-8)Neu5Ac
How it was run: as §1

[21] = molecular target: Neu5Ac(a2-8)Neu5Ac(a2-8)Neu5Ac(a2-3)Gal(b1-4)Glc
How it was run: as §1

[22] = molecular target: Neu5Ac(a2-8)Neu5Ac(a2-8)Neu5Ac(a2-3)[GalNAc(b1-4)]Gal(b1-4)Glc
How it was run: as §1

[23] = molecular target: Neu5Ac(a2-8)Neu5Ac(a2-8)Neu5Ac(a2-8)Neu5Ac(a2-3)[GalNAc(b1-4)]Gal(b1-4)Glc
How it was run: as §1

[24] = molecular target: Neu5Ac(b2-6)Gal(b1-4)GlcNAc
How it was run: as §1

[25] = molecular target: Neu5Ac(b2-6)GalNAc
How it was run: as §1

[26] = molecular target: Neu5Ac9Ac(a2-3)Gal(b1-3)GlcNAc
How it was run: as §1

[27] = molecular target: Neu5Ac9Ac(a2-3)Gal(b1-4)GlcNAc
How it was run: as §1

[28] = molecular target: Neu5Ac9Ac(a2-6)Gal(b1-4)GlcNAc
How it was run: as §1

[29] = molecular target: Neu5Gc(a2-3)Gal(b1-3)GlcNAc
How it was run: as §1

[30] = molecular target: Neu5Gc(a2-3)Gal(b1-3)[Fuc(a1-4)]GlcNAc
How it was run: as §1

[31] = molecular target: Neu5Gc(a2-3)Gal(b1-4)Glc
How it was run: as §1

[32] = molecular target: Neu5Gc(a2-3)Gal(b1-4)GlcNAc
How it was run: as §1

[33] = molecular target: Neu5Gc(a2-3)Gal(b1-4)[Fuc(a1-3)]GlcNAc
How it was run: as §1

[34] = molecular target: Neu5Gc(a2-6)Gal(b1-4)GlcNAc
How it was run: as §1

[35] = molecular target: Neu5Gc(a2-6)GalNAc
How it was run: as §1

[36] = molecular target: Neu5Gc(b2-6)Gal(b1-4)GlcNAc
How it was run: as §1

B1: Spy0252 (Streptococcus pyogenes), Q9A1I9_STRP1 (protein)
chain: MNMKKLASLAMLGASVLGLAACGGKSQKEAGASKSDTAKTEITWWAFPVFTQEKAEDGVGTYEKKLIAAFEKANPEIKVKLETIDFTSGPEKITTAIEAGTAPDVLFDAPGRIIQYGKNGKLADLNDLFTEEFTKDVNNDKLIQASKAGDTAYMYPISSAPFYMALNKKMLKDAGVLDLVKEGWTTDDFEKVLKALKDKGYNPGSFFANGQGGDQGPRAFFANLYSSHITDDKVTKYTTDDANSIKAMTKISNWIKDGLMMNGSQYDGSADIQNFANGQTSFTILWAPAQPGIQAKLLEASKVDYLEIPFPSDDGKPELEYLVNGFAVFNNKDEQKVAASKTFIQFIADDKEWGPKNVVRTGAFPVRTSYGDLYKDKRMEKIAEWTKFYSPYYNTIDGFAEMRTLWFPMVQAVSNGDEKPEDALKAFTEKANKTIKKTQ
Question: With B1 as the binder, how does the “glycan array binding signal (z-score)” value [1] read?
Answer: -0.242

Question: What about the “glycan array binding signal (z-score)” value [2] of the same binder?
Answer: -0.26

Question: And the “glycan array binding signal (z-score)” value [3]?
Answer: -0.277

Question: What about the “glycan array binding signal (z-score)” value [4] of the same binder?
Answer: -0.265

Question: And the “glycan array binding signal (z-score)” value [5]?
Answer: -0.234

Question: What about the “glycan array binding signal (z-score)” value [6] of the same binder?
Answer: -0.26

Question: What about the “glycan array binding signal (z-score)” value [7] of the same binder?
Answer: -0.257

Question: And the “glycan array binding signal (z-score)” value [8]?
Answer: -0.269

Question: What about the “glycan array binding signal (z-score)” value [9] of the same binder?
Answer: -0.255

Question: And the “glycan array binding signal (z-score)” value [10]?
Answer: -0.245

Question: What about the “glycan array binding signal (z-score)” value [11] of the same binder?
Answer: -0.189

Question: And the “glycan array binding signal (z-score)” value [12]?
Answer: -0.269

Question: And the “glycan array binding signal (z-score)” value [13]?
Answer: 1.2

Question: What about the “glycan array binding signal (z-score)” value [14] of the same binder?
Answer: -0.281

Question: What about the “glycan array binding signal (z-score)” value [15] of the same binder?
Answer: -0.264

Question: And the “glycan array binding signal (z-score)” value [16]?
Answer: -0.269

Question: What about the “glycan array binding signal (z-score)” value [17] of the same binder?
Answer: -0.268

Question: What about the “glycan array binding signal (z-score)” value [18] of the same binder?
Answer: 7.23

Question: And the “glycan array binding signal (z-score)” value [19]?
Answer: -0.253

Question: What about the “glycan array binding signal (z-score)” value [20] of the same binder?
Answer: -0.27

Question: And the “glycan array binding signal (z-score)” value [21]?
Answer: 7.09

Question: What about the “glycan array binding signal (z-score)” value [22] of the same binder?
Answer: -0.266

Question: What about the “glycan array binding signal (z-score)” value [23] of the same binder?
Answer: -0.065

Question: What about the “glycan array binding signal (z-score)” value [24] of the same binder?
Answer: -0.273

Question: What about the “glycan array binding signal (z-score)” value [25] of the same binder?
Answer: -0.278

Question: What about the “glycan array binding signal (z-score)” value [26] of the same binder?
Answer: -0.262

Question: What about the “glycan array binding signal (z-score)” value [27] of the same binder?
Answer: -0.274

Question: What about the “glycan array binding signal (z-score)” value [28] of the same binder?
Answer: -0.248

Question: And the “glycan array binding signal (z-score)” value [29]?
Answer: -0.265

Question: And the “glycan array binding signal (z-score)” value [30]?
Answer: -0.269

Question: And the “glycan array binding signal (z-score)” value [31]?
Answer: 5.2

Question: What about the “glycan array binding signal (z-score)” value [32] of the same binder?
Answer: -0.274

Question: What about the “glycan array binding signal (z-score)” value [33] of the same binder?
Answer: -0.247

Question: What about the “glycan array binding signal (z-score)” value [34] of the same binder?
Answer: -0.261

Question: What about the “glycan array binding signal (z-score)” value [35] of the same binder?
Answer: 1.27

Question: What about the “glycan array binding signal (z-score)” value [36] of the same binder?
Answer: -0.274
